Source: the supplement of paper PMC11876631
± gives the standard deviation of the averaged measurements. Laboratory Escherichia coli strains with one amino-acid change in an essential protein, pooled on minimal glucose agar with carbenicillin or gentamicin at twice the control MIC (plus kanamycin and chloramphenicol for the plasmids), 48 h. Fold change of barcode share against drug-free plates; higher = less susceptible. Active = above 20 in both replicates (the paper's putatively resistant). '<' = one read or none on drug, '>' = one read or none on a drug-free plate. Shares are relative, so most strains fall below 1 when a few take over. Listed are strains with at least 15 reads on both drug-free plates, and hits; most hits rest on fewer reference reads. Replicate rank correlation about 0.5. Edits are read from barcodes.

B1: murJ; numbered along this chain (parent)
chain: MNLLKSLAAVSSMTMFSRVLGFARDAIVARIFGAGMATDAFFVAFKLPNLLRRIFAEGAFSQAFVPILAEYKSKQGEDATRVFVSYVSGLLTLALAVVTVAGMLAAPWVIMVTAPGFADTADKFALTSQLLKITFPYILLISLASLVGAILNTWNRFSIPAFAPTLLNISMIGFALFAAPYFNPPVLALAWAVTVGGVLQLVYQLPHLKKIGMLVLPRINFHDAGAMRVVKQMGPAILGVSVSQISLIINTIFASFLASGSVSWMYYADRLMEFPSGVLGVALGTILLPSLSKSFASGNHDEYNRLMDWGLRLCFLLALPSAVALGILSGPLTVSLFQYGKFTAFDALMTQRALIAYSVGLIGLIVVKVLAPGFYSRQDIKTPVKIAIVTLILTQLMNLAFIGPLKHAGLSLSIGLAACLNASLLYWQLRKQKIFTPQPGWMAFLLRLVVAVLVMSGVLLGMLHIMPEWSLGTMPWRLLRLMAVVLAGIAAYFAALAVLGFKVKEFARRTV
B2: ubiA; numbered along this chain (parent)
chain: MEWSLTQNKLLAFHRLMRTDKPIGALLLLWPTLWALWVATPGVPQLWILAVFVAGVWLMRAAGCVVNDYADRKFDGHVKRTANRPLPSGAVTEKEARALFVVLVLISFLLVLTLNTMTILLSIAALALAWVYPFMKRYTHLPQVVLGAAFGWSIPMAFAAVSESVPLSCWLMFLANILWAVAYDTQYAMVDRDDDVKIGIKSTAILFGQYDKLIIGILQIGVLALMAIIGELNGLGWGYYWSILVAGALFVYQQKLIANREREACFKAFMNNNYVGLVLFLGLAMSYWHF
B3: yqgF; numbered along this chain (parent)
chain: MSGTLLAFDFGTKSIGVAVGQRITGTARPLPAIKAQDGTPDWNIIERLLKEWQPDEIIVGLPLNMDGTEQPLTARARKFANRIHGRFGVEVKLHDERLSTVEARSGLFEQGGYRALNKGKVDSASAVIILESYFEQGY

Variants of: B1
Assay: barcode share on antibiotic plates over drug-free plates; higher = less susceptible
Settings: with Escherichia coli (laboratory strain); antibiotic: carbenicillin; 2× MIC (3.1 µg/mL)
Method: (§1)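 A pool of E. coli strains, each edited to carry one amino-acid change in an essential protein, was grown for 48 h on minimal glucose agar with or without antibiotic; strain barcodes were sequenced; mean of two replicates.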
With V498A the “fold change of barcode share” value was 0.283 ± 0.072.
With L496A the “fold change of barcode share” value was 0.386 ± 0.059.
With M482P the “fold change of barcode share” value was 0.401 ± 0.11.
In the case of M466A, the “fold change of barcode share” value is reported as 0.476 ± 0.049.
With L448D the “fold change of barcode share” value was 0.241 ± 0.072.
In the case of M466P, the “fold change of barcode share” value is reported as 0.307 ± 0.039.
With L448W the “fold change of barcode share” value was 0.407 ± 0.007.
L496W was tested, and the “fold change of barcode share” value was 0.484 ± 0.21.
In the case of L448P, the “fold change of barcode share” value is reported as 0.501 ± 0.14.
With V450D the “fold change of barcode share” value was 0.268 ± 0.13.
V498D was tested, and the “fold change of barcode share” value was 0.371 ± 0.099.
In the case of V498P, the “fold change of barcode share” value is reported as 0.277 ± 0.062.
With V450W the “fold change of barcode share” value was 0.177 ± 0.095.
For V450Q, the “fold change of barcode share” value was 0.259 ± 0.02.
M466Q was tested, and the “fold change of barcode share” value was 0.274 ± 0.014.
For M482Q, the “fold change of barcode share” value was 0.272 ± 0.00069.
In the case of M482D, the “fold change of barcode share” value is reported as 0.442 ± 0.073.
For M466D, the “fold change of barcode share” value was 0.38 ± 0.12.

Same assay, conditions: with Escherichia coli (laboratory strain); antibiotic: gentamicin; 2× MIC (MIC 0.45 µg/mL)
In the case of V498A, the “fold change of barcode share” value is reported as 0.00741 ± 0.0033.
For L496A, the “fold change of barcode share” value was 0.0256 ± 0.031.
M482P was tested, and the “fold change of barcode share” value was 0.00284 ± 0.0028.
In the case of M466A, the “fold change of barcode share” value is reported as 0.0122 ± 0.014.
L448D was tested, and the “fold change of barcode share” value was 0.00731 ± 0.0054.
With M466P the “fold change of barcode share” value was 0.119 ± 0.16.
With L448W the “fold change of barcode share” value was 0.00438 ± 0.0018.
L496W was tested, and the “fold change of barcode share” value was 0.0558 ± 0.026.
For L448P, the “fold change of barcode share” value was 0.00564 ± 0.0057.
For V450D, the “fold change of barcode share” value was 0.00522 ± 0.0024.
In the case of V498D, the “fold change of barcode share” value is reported as 0.00221 ± 0.00065.
V498P was tested, and the “fold change of barcode share” value was 0.0025 ± 0.0011.
For V450W, the “fold change of barcode share” value was < 0.00501.
V450Q was tested, and the “fold change of barcode share” value was 0.00609 ± 0.0053.
In the case of M466Q, the “fold change of barcode share” value is reported as 0.0131 ± 0.016.
For M482Q, the “fold change of barcode share” value was 0.00612 ± 0.0072.
In the case of M482D, the “fold change of barcode share” value is reported as 0.0041 ± 0.00064.
With M466D the “fold change of barcode share” value was 0.00628 ± 0.001.
In the case of V484W, the “fold change of barcode share” value is reported as < 0.0167.

Variants of: B2
Assay: as above
Settings: with Escherichia coli (laboratory strain); antibiotic: carbenicillin; 2× MIC (3.1 µg/mL)
Method: as §1
With L49A the “fold change of barcode share” value was 0.866 ± 0.18.
L49D was tested, and the “fold change of barcode share” value was 0.703 ± 0.028.
In the case of L49P, the “fold change of barcode share” value is reported as 0.993 ± 0.12.
For L49Q, the “fold change of barcode share” value was 0.685 ± 0.12.
For L49W, the “fold change of barcode share” value was 0.645 ± 0.31.
For V51A, the “fold change of barcode share” value was 0.469 ± 0.022.
For V51D, the “fold change of barcode share” value was 0.742 ± 0.049.
V51P was tested, and the “fold change of barcode share” value was 0.821 ± 0.31.
With V51Q the “fold change of barcode share” value was 1.3 ± 0.29.
With V51W the “fold change of barcode share” value was 0.348 ± 0.14.
In the case of F52A, the “fold change of barcode share” value is reported as 0.516 ± 0.028.
With F52D the “fold change of barcode share” value was 0.616 ± 0.18.
With F52Q the “fold change of barcode share” value was 0.435 ± 0.019.
With F52W the “fold change of barcode share” value was 0.593 ± 0.064.
With V145A the “fold change of barcode share” value was 0.322 ± 0.054.
For V145P, the “fold change of barcode share” value was 0.739 ± 0.43.
In the case of V145Q, the “fold change of barcode share” value is reported as 0.574 ± 0.073.
For V145W, the “fold change of barcode share” value was 0.232 ± 0.099.
In the case of F173A, the “fold change of barcode share” value is reported as 0.41 ± 0.27.
With F173D the “fold change of barcode share” value was 0.431 ± 0.093.
F173Q was tested, and the “fold change of barcode share” value was 0.791 ± 0.047.
With F173W the “fold change of barcode share” value was 0.0843 ± 0.017.
L174A was tested, and the “fold change of barcode share” value was 0.426 ± 0.18.
L174P was tested, and the “fold change of barcode share” value was 0.301 ± 0.16.
L174W was tested, and the “fold change of barcode share” value was 0.346 ± 0.037.

Same assay, conditions: with Escherichia coli (laboratory strain); antibiotic: gentamicin; 2× MIC (MIC 0.45 µg/mL)
For L49A, the “fold change of barcode share” value was 0.245 ± 0.33.
With L49D the “fold change of barcode share” value was 0.096 ± 0.057.
With L49P the “fold change of barcode share” value was 0.0746 ± 0.062.
L49Q was tested, and the “fold change of barcode share” value was 0.115 ± 0.0031.
In the case of L49W, the “fold change of barcode share” value is reported as 0.0732 ± 0.05.
In the case of V51A, the “fold change of barcode share” value is reported as 0.0448 ± 0.039.
V51D was tested, and the “fold change of barcode share” value was 0.0843 ± 0.061.
For V51P, the “fold change of barcode share” value was 0.0591 ± 0.057.
In the case of V51Q, the “fold change of barcode share” value is reported as 0.0656 ± 0.052.
For V51W, the “fold change of barcode share” value was 0.0209 ± 0.012.
With F52A the “fold change of barcode share” value was 0.0392 ± 0.029.
For F52D, the “fold change of barcode share” value was 0.0416 ± 0.011.
For F52Q, the “fold change of barcode share” value was 0.0454 ± 0.032.
F52W was tested, and the “fold change of barcode share” value was 0.0388 ± 0.042.
For V145A, the “fold change of barcode share” value was 0.0225 ± 0.011.
In the case of V145P, the “fold change of barcode share” value is reported as 0.186 ± 0.095.
V145Q was tested, and the “fold change of barcode share” value was 0.0513 ± 0.051.
With V145W the “fold change of barcode share” value was 0.0122 ± 0.0037.
For F173A, the “fold change of barcode share” value was 0.0612 ± 0.074.
In the case of F173W, the “fold change of barcode share” value is reported as 0.162 ± 0.14.
For L174A, the “fold change of barcode share” value was < 0.0116.
With L174P the “fold change of barcode share” value was < 0.0129.
In the case of L174W, the “fold change of barcode share” value is reported as < 0.0135.
For F52P, the “fold change of barcode share” value was > 2100 [active].
With V145D the “fold change of barcode share” value was > 1180 [active].
For L174D, the “fold change of barcode share” value was 0.0287 ± 0.0095.
For L174Q, the “fold change of barcode share” value was < 0.0171.

Variants of: B3
Assay: as above
Settings: with Escherichia coli (laboratory strain); antibiotic: carbenicillin; 2× MIC (3.1 µg/mL)
Method: as §1
With L6D the “fold change of barcode share” value was 0.387 ± 0.17.
I45A was tested, and the “fold change of barcode share” value was 0.196 ± 0.0079.
With I45P the “fold change of barcode share” value was 0.15 ± 0.024.
For I15W, the “fold change of barcode share” value was 0.332 ± 0.11.
With L6Q the “fold change of barcode share” value was 0.294 ± 0.1.
V17W was tested, and the “fold change of barcode share” value was 0.292 ± 0.11.
In the case of I83W, the “fold change of barcode share” value is reported as 0.827 ± 0.9.
With V17D the “fold change of barcode share” value was 0.442 ± 0.024.
I45Q was tested, and the “fold change of barcode share” value was 0.471 ± 0.28.

Same assay, conditions: with Escherichia coli (laboratory strain); antibiotic: gentamicin; 2× MIC (MIC 0.45 µg/mL)
In the case of L6D, the “fold change of barcode share” value is reported as < 0.00575.
With I45A the “fold change of barcode share” value was < 0.0108.
With I15W the “fold change of barcode share” value was 0.00763 ± 0.0063.
In the case of L6Q, the “fold change of barcode share” value is reported as 0.00763 ± 0.0053.
With V17W the “fold change of barcode share” value was 0.00323 ± 0.0021.
In the case of I83W, the “fold change of barcode share” value is reported as < 0.0123.
For V17D, the “fold change of barcode share” value was 0.0344 ± 0.023.
I45Q was tested, and the “fold change of barcode share” value was 0.0309 ± 0.031.
